The other results are listed elsewhere or left out.
These compounds were tested on HSkMC (human skeletal muscle cells) (assay: cytotoxicity call (relative viability < 0.9)). Conditions: 10 µM.

Row | Compound | cytotoxicity call
1 | COc1ccc2c3c(n(c2c1)C)[C@H](CO)N(C[C@]13CN(Cc2cccc(c2)F)C1)C(=O)C1CCOCC1 | inactive
2 | CC(C)NC(=O)N(C)C[C@@H]1Oc2ccc(NC(=O)C3CCCCC3)cc2C(=O)N([C@H](C)CO)C[C@@H]1C | inactive
3 | C[C@H]1CN([C@@H](C)CO)C(=O)c2cccc(N(C)C)c2O[C@@H]1CN(C)S(=O)(=O)c1ccc(Cl)cc1 | inactive
4 | CO[C@@H]1CN(C)C(=O)c2ccc(NC(=O)NC(C)C)cc2OC[C@H](C)N(Cc2ccc(-c3ccccn3)cc2)C[C@H]1C | inactive
5 | COc1ccc(NC(=O)Nc2ccc3c(c2)C(=O)N([C@H](C)CO)C[C@@H](C)[C@H](CN(C)CC2CCCCC2)OCCCC[C@@H](C)O3)cc1 | inactive
6 | C[C@@H]1CN([C@@H](C)CO)C(=O)Cc2cc(NC(=O)c3ccncc3)ccc2O[C@@H]1CN(C)Cc1ccc(Oc2ccccc2)cc1 | inactive
7 | COc1ccc(NC(=O)N(C)C[C@@H]2Oc3c(NC(=O)C4CC4)cccc3C(=O)N([C@H](C)CO)C[C@H]2C)cc1 | inactive
8 | CO[C@@H](C(=O)N(C)C[C@@H]1OCc2ccccc2-c2c(n(C)c3ccccc23)C(=O)N([C@@H](C)CO)C[C@H]1C)c1ccccc1 | inactive
9 | C[C@@H]1CCCCO[C@H](CN(C)C(=O)C2CCCCC2)[C@@H](C)CN([C@@H](C)CO)C(=O)c2cc(NC(=O)c3ccncc3)ccc2O1 | inactive
10 | C[C@@H]1CCCCO[C@H](CN(C)C(=O)Nc2ccc(F)cc2)[C@@H](C)CN([C@H](C)CO)C(=O)c2cc(NC(=O)Nc3ccc(C(F)(F)F)cc3)ccc2O1 | inactive
11 | Cc1ccc(S(=O)(=O)Nc2cccc3c2O[C@H](CN(C)S(=O)(=O)c2cn(C)cn2)[C@@H](C)CN([C@H](C)CO)C3=O)cc1 | inactive
12 | C[C@H](CO)N1C[C@H](C)[C@@H](CN(C)S(=O)(=O)c2cn(C)cn2)Oc2c(NS(=O)(=O)c3ccccc3)cccc2C1=O | inactive
13 | C[C@@H]1CN([C@H](C)CO)C(=O)Cc2cc(NC(=O)Nc3ccc4c(c3)OCO4)ccc2O[C@@H]1CN(C)Cc1ccc(-c2ccccc2)cc1 | active
14 | COc1ccc(NC(=O)N(C)C[C@@H]2Oc3c(NC(=O)c4cnccn4)cccc3C(=O)N([C@@H](C)CO)C[C@@H]2C)cc1 | inactive
15 | C[C@H]1CN([C@@H](C)CO)C(=O)c2cccc(NC(=O)c3ccncc3)c2O[C@@H]1CN(C)Cc1ccc2c(c1)OCO2 | inactive
16 | C[C@H]1CN([C@@H](C)CO)C(=O)c2ccccc2-c2ccccc2CO[C@@H]1CN(C)Cc1ccccc1C(F)(F)F | active
17 | Cc1ccc(S(=O)(=O)N(C)C[C@@H]2Oc3ccc(NS(=O)(=O)c4ccc(F)cc4)cc3CC(=O)N([C@H](C)CO)C[C@@H]2C)cc1 | inactive
18 | C[C@H](CO)N1C[C@H](C)[C@H](CN(C)C(=O)Nc2ccc(C(F)(F)F)cc2)OCCCC[C@H](C)Oc2ccc(NC(=O)Cc3ccccc3)cc2C1=O | inactive
19 | CN(C)/C=C/C(=S)c1cccs1 | inactive
20 | C[C@H]1CCCCO[C@@H](CN(C)C(=O)C2CCCCC2)[C@@H](C)CN([C@@H](C)CO)C(=O)c2cc(NS(=O)(=O)c3cccs3)ccc2O1 | inactive
21 | CCCC#Cc1cnc2c(c1)C(=O)N([C@@H](C)CO)C[C@@H](C)[C@H](CN(C)C(=O)c1ccc3c(c1)OCO3)O2 | inactive
22 | CS(=O)(=O)Nc1ccc2c(c1)[C@H]1C[C@H](CC(=O)NCC3CC3)O[C@@H](CO)[C@H]1O2 | inactive
23 | C[C@@H]1CCCCO[C@H](CN(C)S(=O)(=O)c2ccc(F)cc2)[C@H](C)CN([C@@H](C)CO)C(=O)c2cc(NS(=O)(=O)c3cn(C)cn3)ccc2O1 | inactive
24 | C[C@@H]1CN([C@H](C)CO)C(=O)Cc2cc(NS(=O)(=O)c3ccc(Cl)cc3)ccc2O[C@@H]1CN(C)Cc1ccc(C(F)(F)F)cc1 | active
25 | O=C1NCCOc2ccc([N+](=O)[O-])cc21 | inactive
26 | O=C(Nc1nc(OCCN2CCCC2=O)cnc1-c1cc(Cl)cc(Cl)c1)c1cc2ccccc2s1 | inactive
27 | Cc1noc(C)c1S(=O)(=O)N(C)C[C@H]1OCc2cn(nn2)CCCC(=O)N([C@H](C)CO)C[C@@H]1C | inactive
28 | COc1ccc([C@@H]([C@H](Cc2ccccc2)OC(C)=O)N2C[C@@H]3C(=NO[C@@H]3[C@@H](O)c3ccccc3)[C@@H]2Cc2ccccc2)cc1 | inactive

What follows are compounds tested on HepG2 (assay: cytotoxicity call (relative viability < 0.9)). Conditions: 10 µM.

Row | Compound | cytotoxicity call
29 | CC(C)NC(=O)N(C)C[C@H]1Oc2ccc(NC(=O)c3ccncc3)cc2CC(=O)N([C@@H](C)CO)C[C@@H]1C | inactive
30 | C[C@H]1CCCCO[C@@H](CN(C)Cc2ccc3c(c2)OCO3)[C@@H](C)CN([C@@H](C)CO)C(=O)c2cc(NC(=O)Nc3ccc(C(F)(F)F)cc3)ccc2O1 | active
31 | C[C@H](CO)N1C[C@H](C)[C@H](CN(C)C(=O)Nc2cc(F)ccc2F)Oc2ncc(C#CCN(C)C)cc2C1=O | inactive
32 | C[C@@H]1CCCCO[C@@H](CN(C)Cc2ccc(C(F)(F)F)cc2)[C@H](C)CN([C@@H](C)CO)C(=O)c2cc(NC(=O)Nc3cccc4ccccc34)ccc2O1 | inactive
33 | CNC[C@@H]1Oc2ccc(NS(=O)(=O)c3cn(C)cn3)cc2CC(=O)N([C@@H](C)CO)C[C@@H]1C | inactive
34 | C[C@H](O)C1=C[C@]2(CC[C@@H]3C(C(=O)O)=CO[C@@H](O[C@@H]4O[C@H](CO)[C@@H](O)[C@H](O)[C@H]4O)[C@@H]32)OC1=O | inactive
35 | COc1ccccc1C#Cc1ccc2c(c1)O[C@@H](CN(C)Cc1cncnc1)[C@@H](C)CN([C@H](C)CO)S2(=O)=O | inactive
36 | COc1ccc(S(=O)(=O)Nc2ccc3c(c2)C(=O)N([C@H](C)CO)C[C@H](C)[C@H](CN(C)Cc2ccc(C(=O)O)cc2)OCCCC[C@H](C)O3)cc1 | inactive
37 | CCNc1nc(NCC)nc(OCC#N)n1 | inactive
38 | CC(=O)OCC[N+](C)(C)C.[Cl-] | inactive
39 | COc1ccc(C(C)=O)c(O)c1 | inactive
40 | Cc1ccc(S(=O)(=O)Nc2ccc3c(c2)C(=O)N([C@H](C)CO)C[C@H](C)[C@H](CN(C)Cc2ccc4c(c2)OCO4)OCCCC[C@H](C)O3)cc1 | active
41 | COc1ccc2c3c(n(c2c1)C)[C@H](CO)N(C[C@]13CN(Cc2cccc(c2)F)C1)C(=O)C1CCOCC1 | inactive
42 | CC(C)NC(=O)N(C)C[C@@H]1Oc2ccc(NC(=O)C3CCCCC3)cc2C(=O)N([C@H](C)CO)C[C@@H]1C | inactive
43 | C[C@H]1CN([C@@H](C)CO)C(=O)c2cccc(N(C)C)c2O[C@@H]1CN(C)S(=O)(=O)c1ccc(Cl)cc1 | inactive
44 | CO[C@@H]1CN(C)C(=O)c2ccc(NC(=O)NC(C)C)cc2OC[C@H](C)N(Cc2ccc(-c3ccccn3)cc2)C[C@H]1C | inactive
45 | COc1ccc(NC(=O)Nc2ccc3c(c2)C(=O)N([C@H](C)CO)C[C@@H](C)[C@H](CN(C)CC2CCCCC2)OCCCC[C@@H](C)O3)cc1 | active
46 | C[C@@H]1CN([C@@H](C)CO)C(=O)Cc2cc(NC(=O)c3ccncc3)ccc2O[C@@H]1CN(C)Cc1ccc(Oc2ccccc2)cc1 | active

Row | Compound | cytotoxicity call
47 | COc1ccc(NC(=O)N(C)C[C@@H]2Oc3c(NC(=O)C4CC4)cccc3C(=O)N([C@H](C)CO)C[C@H]2C)cc1 | inactive
48 | CO[C@@H](C(=O)N(C)C[C@@H]1OCc2ccccc2-c2c(n(C)c3ccccc23)C(=O)N([C@@H](C)CO)C[C@H]1C)c1ccccc1 | inactive
49 | C[C@@H]1CCCCO[C@H](CN(C)C(=O)C2CCCCC2)[C@@H](C)CN([C@@H](C)CO)C(=O)c2cc(NC(=O)c3ccncc3)ccc2O1 | inactive
50 | C[C@@H]1CCCCO[C@H](CN(C)C(=O)Nc2ccc(F)cc2)[C@@H](C)CN([C@H](C)CO)C(=O)c2cc(NC(=O)Nc3ccc(C(F)(F)F)cc3)ccc2O1 | inactive
51 | Cc1ccc(S(=O)(=O)Nc2cccc3c2O[C@H](CN(C)S(=O)(=O)c2cn(C)cn2)[C@@H](C)CN([C@H](C)CO)C3=O)cc1 | inactive
52 | C[C@H](CO)N1C[C@H](C)[C@@H](CN(C)S(=O)(=O)c2cn(C)cn2)Oc2c(NS(=O)(=O)c3ccccc3)cccc2C1=O | inactive
53 | C[C@@H]1CN([C@H](C)CO)C(=O)Cc2cc(NC(=O)Nc3ccc4c(c3)OCO4)ccc2O[C@@H]1CN(C)Cc1ccc(-c2ccccc2)cc1 | active
54 | COc1ccc(NC(=O)N(C)C[C@@H]2Oc3c(NC(=O)c4cnccn4)cccc3C(=O)N([C@@H](C)CO)C[C@@H]2C)cc1 | inactive
55 | C[C@H]1CN([C@@H](C)CO)C(=O)c2cccc(NC(=O)c3ccncc3)c2O[C@@H]1CN(C)Cc1ccc2c(c1)OCO2 | inactive
56 | C[C@H]1CN([C@@H](C)CO)C(=O)c2ccccc2-c2ccccc2CO[C@@H]1CN(C)Cc1ccccc1C(F)(F)F | inactive
57 | Cc1ccc(S(=O)(=O)N(C)C[C@@H]2Oc3ccc(NS(=O)(=O)c4ccc(F)cc4)cc3CC(=O)N([C@H](C)CO)C[C@@H]2C)cc1 | inactive
58 | C[C@H](CO)N1C[C@H](C)[C@H](CN(C)C(=O)Nc2ccc(C(F)(F)F)cc2)OCCCC[C@H](C)Oc2ccc(NC(=O)Cc3ccccc3)cc2C1=O | inactive
59 | CN(C)/C=C/C(=S)c1cccs1 | inactive
60 | C[C@H]1CCCCO[C@@H](CN(C)C(=O)C2CCCCC2)[C@@H](C)CN([C@@H](C)CO)C(=O)c2cc(NS(=O)(=O)c3cccs3)ccc2O1 | inactive
61 | CCCC#Cc1cnc2c(c1)C(=O)N([C@@H](C)CO)C[C@@H](C)[C@H](CN(C)C(=O)c1ccc3c(c1)OCO3)O2 | inactive
62 | CS(=O)(=O)Nc1ccc2c(c1)[C@H]1C[C@H](CC(=O)NCC3CC3)O[C@@H](CO)[C@H]1O2 | inactive
63 | C[C@@H]1CCCCO[C@H](CN(C)S(=O)(=O)c2ccc(F)cc2)[C@H](C)CN([C@@H](C)CO)C(=O)c2cc(NS(=O)(=O)c3cn(C)cn3)ccc2O1 | inactive

Reference: the antibiotic and cytotoxicity screens of Wong et al. (2023)
